{
  "source": "the supplement of paper PMC11417369",
  "note": "The other results are listed elsewhere or left out.",
  "data": [
    {"test_system": "PfHDP1 homeodomain (GST-tagged)", "test": "gcPBM binding intensity (ln(normalized median fluorescence intensity)); higher = stronger DNA binding", "summary_of_the_method": "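In this array assay, P. falciparum DNA-binding domains with a GST tag, expressed in E. coli, were applied for 1 h to primer-extended double-stranded 36-bp intergenic genomic probes and negative controls on an Agilent 4 × 180k array. Bound protein was visualised with Alexa488 anti-GST antibody at 488 nm. Binding intensity is the highest Masliner-normalised natural-log median intensity across replicate spots of either probe orientation.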", "values": [
      {"sequence": "TAAAATAATAAAACAACACACAAATAGTTAAAATAG [CACACA_site1680]", "gcPBM binding intensity (ln)": 6.68},
      {"sequence": "TAAATCATTTATTAAGTGCAATATTCTTTTTGAGAT", "gcPBM binding intensity (ln)": 8.51},
      {"sequence": "TGTTTTCCCTTTAGTGTGCACGTATTTCTATTAACA [GTGCAC_site9847]", "gcPBM binding intensity (ln)": 9.8},
      {"sequence": "TAAAAACATTTAAATTGTACGGAAATAAAAATTTTT [XGTACX_site8225]", "gcPBM binding intensity (ln)": 6.47},
      {"sequence": "ATATAAATATTAAATACACACATTTTTGATTAGGTT [CACACA_site7461]", "gcPBM binding intensity (ln)": 6.38},
      {"sequence": "AAAATGATAATACCAAGTACACATATGAAAAATACA [XGTACX_site6763]", "gcPBM binding intensity (ln)": 7.05},
      {"sequence": "ATATAGAATATATTAACATGCAATAAGTAAAGGGGG [TGCATGCA_site1022]", "gcPBM binding intensity (ln)": 7.05},
      {"sequence": "ACAATGAAATATTCATGTACATATAAATAATAGTGT [XGTACX_site3762]", "gcPBM binding intensity (ln)": 6.41},
      {"sequence": "CACTTCATAAAAATTGCACACATATAATAATGTACA [CACACA_site8692]", "gcPBM binding intensity (ln)": 10.1},
      {"sequence": "ATATAATTTGATGGTTAACACACATATATATTATAT [CACACA_site8775]", "gcPBM binding intensity (ln)": 6.39},
      {"sequence": "TCATATAATCAAATATGTACATATTTTCAATTGAAT [XGTACX_site6831]", "gcPBM binding intensity (ln)": 6.7},
      {"sequence": "ATATTTATTTAATGAACACACGATATATTATTTTAT [CACACA_site1602]", "gcPBM binding intensity (ln)": 6.41},
      {"sequence": "TTATTTATTTTTTATACACACAATTATCTTTTTAAG [CACACA_site6162]", "gcPBM binding intensity (ln)": 6.86},
      {"sequence": "AAAATAGAGTTGAATGCACACATACAAATTTTTAGG [CACACA_site9188]", "gcPBM binding intensity (ln)": 8.74},
      {"sequence": "TTATTAAATTCTTTATTTAGCATATACAATAAAAGA [CACACA_negctrl_site1420]", "gcPBM binding intensity (ln)": 6.23},
      {"sequence": "ATAAATAATTTATTCACACATACAAAAGTTTACAAA [CACACA_site5666]", "gcPBM binding intensity (ln)": 6.55},
      {"sequence": "TCTTATATAACGAAAGTAAAATAATATGCTAAGCAT [CACACA_negctrl_site668]", "gcPBM binding intensity (ln)": 6.23},
      {"sequence": "TTTTTTTTTTTTGAAGTGCATGTTACGATGAACAAA [GTGCAC_site9451]", "gcPBM binding intensity (ln)": 7.25},
      {"sequence": "CTAAAAAGAGAAGTGTGTCCTCAAATTAATATAATT [XGTACX_site1057]", "gcPBM binding intensity (ln)": 6.58},
      {"sequence": "GAAAAAAAAAAAAATACACACAAATTGGTATAGAAT [CACACA_site380]", "gcPBM binding intensity (ln)": 6.48},
      {"sequence": "AATGAATATTAAAGGAGTACACATAATAAGTAAGAA [XGTACX_site7354]", "gcPBM binding intensity (ln)": 7.53},
      {"sequence": "TATATAAAAATATACACACACAAATGTATTTATATA [CACACA_site4284]", "gcPBM binding intensity (ln)": 6.37},
      {"sequence": "AATAGGATATGGTACATTTTTTGTATACTTTTTGTT [CACACA_negctrl_site1804]", "gcPBM binding intensity (ln)": 6.07},
      {"sequence": "AAACAAGTAATTGTTATTATTATTATATTATTATTA [CACACA_negctrl_site402]", "gcPBM binding intensity (ln)": 6.12},
      {"sequence": "ATAAATTCTATGTATACACACATATATAATATATAT [CACACA_site2689]", "gcPBM binding intensity (ln)": 7.14},
      {"sequence": "AAATATTATGTACGCACACACATTTTTGATATATAA [CACACA_site7755]", "gcPBM binding intensity (ln)": 7.04},
      {"sequence": "CGCAACGTGAAAATACGTACACATACATTTTTATAT [XGTACX_site330]", "gcPBM binding intensity (ln)": 6.25},
      {"sequence": "GTTATTAAATAATTCACACACATATATATATATATA [CACACA_site2260]", "gcPBM binding intensity (ln)": 9.39},
      {"sequence": "TATGGAACACACCTTAATATGTGATAAAATATGATA [GTGCAC_negctrl_site718]", "gcPBM binding intensity (ln)": 6.56},
      {"sequence": "TATTCCTATATACAGCGTACAAAAAATAATATGTAT [XGTACX_site8112]", "gcPBM binding intensity (ln)": 6.62},
      {"sequence": "GGGGGAAGGTTGAAGGTGCTTGATGGAGAAAAATAT", "gcPBM binding intensity (ln)": 7.79},
      {"sequence": "TTAATACATACATTCACACACACTAAATGTATATTT [CACACA_site4105]", "gcPBM binding intensity (ln)": 6.76},
      {"sequence": "TAATCGTTTTATAAATGTACAAAATTGTTATGTTAT [XGTACX_site5147]", "gcPBM binding intensity (ln)": 6.37},
      {"sequence": "AAAAAATAGAATATGGGTACTAAAAAGATACAAACA [XGTACX_site4464]", "gcPBM binding intensity (ln)": 6.84},
      {"sequence": "AAATTCGTAATAATGTGTACATAACTATACATAATT [XGTACX_site1717]", "gcPBM binding intensity (ln)": 6.34},
      {"sequence": "ATTTATATGAAAATATGTACTTATATAAATTTATTT [XGTACX_site53]", "gcPBM binding intensity (ln)": 6.23},
      {"sequence": "GATTATTTCTAAAAAGTGCATATTTAAAAATCTCCT", "gcPBM binding intensity (ln)": 7.74},
      {"sequence": "TATTATATTATACATACACACCCATATAATATGTTT [CACACA_site8191]", "gcPBM binding intensity (ln)": 6.85},
      {"sequence": "ATTGTTTTGTAATATGAAAAAATTGTGTAATGTGTC [CACACA_negctrl_site1510]", "gcPBM binding intensity (ln)": 6.96},
      {"sequence": "AGAAGATTAAACATTGCACACAAAAACATATTTTCT [CACACA_site8072]", "gcPBM binding intensity (ln)": 9.54},
      {"sequence": "CAAAGGAAACCTATCTGTACACATATTGGGGGAAAA [XGTACX_site3502]", "gcPBM binding intensity (ln)": 7.27},
      {"sequence": "AATATATAAGCTGTTCTATTCAAGAATTATATCTTA [CACACA_negctrl_site270]", "gcPBM binding intensity (ln)": 5.98},
      {"sequence": "AAGATTAAACATTGCACACAAAAACATATTTTCTAT [CACACA_site530]", "gcPBM binding intensity (ln)": 9.7},
      {"sequence": "AATAAATATATTAAAAGTACACAAATATTATTTAAT [XGTACX_site2482]", "gcPBM binding intensity (ln)": 6.38}
    ]}
  ]
}
